# From the supplement of paper PMC12217912
# The other results are listed elsewhere or left out. Sequences were assembled here from the parent chain. Values near 0.05 are background.
# B1: TEV protease; numbered along this chain (parent)
# chain: MGESLFKGPRDYNPISSSICHLTNESDGHTTSLYGIGFGPFIITNKHLFRRNNGTLVVQSLHGVFKVKDTTTLQQHLVDGRDMIIIRMPKDFPPFPQKLKFREPQREERICLVTTNFQTKSMSSMVSDTSCTFPSGDGIFWKHWIQTKDGQCGSPLVSTRDGFIVGIHSASNFTNTNNYFTSVPKNFMELLTNQEAQQWVSGWRLNADSVLWGGHKVFMVKPEEPFQPVKEATQL
# Variants of: B1
# Experiment: raw area under fraction-flipped curve 0-4 h after induction (AUC4h, not background-subtracted), DNA-recorder readout of cleavage of the substrate (dimensionless); higher = more cleavage of the substrate by the protease variant
# Settings: temperature: 34 °C; time window: 0-4 h after rhamnose induction
# Procedure: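 In vivo DNA recorder in E. coli TOP10(DE3) ΔrhaA at 34 °C. Each TEVp single-site mutant (parent TEVp 0) is paired with a single-site variant of the 7-mer TEVs (canonical ENLYFQ|S). The substrate sits between flexible linkers in a Bxb1-sfGFP-TEVs-SsrA fusion, so cleavage stabilises Bxb1 and speeds flipping of a recombination array, read by NGS. The value is the raw area under the fraction-flipped curve over 0-4 h after rhamnose induction (AUC4h), with ≥20 reads per time point. It is not background-subtracted; inactive controls average about 0.047.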
# 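Also: Bxb1 expression induced with 0.2% (w/v) L-rhamnose at OD600 near 0.5, cultures sampled hourly, flipped fraction per protease–substrate barcode pair counted by paired-end Illumina sequencing.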
Variant,area with substrate ENLYAQS,area with substrate ENLYDQS,area with substrate ENLYEQS,area with substrate ENLYHQS,area with substrate ENLYIQS,area with substrate ENLYKQS,area with substrate ENLYLQS,area with substrate ENLYMQS,area with substrate ENLYNQS,area with substrate ENLYPQS,area with substrate ENLYRQS,area with substrate ENLYSQS,area with substrate ENLYTQS,area with substrate ENLYVQS,area with substrate ENLYWQS,area with substrate ENLYYQS,area with substrate ENLYCQS,area with substrate ENLYGQS,area with substrate ENLYQQS
G54S,0.0828,0.0568,0.0752,0.0573,0.106,0.0495,0.0515,0.0596,0.0593,0.0791,0.06,0.0757,0.0608,0.0846,0.0534,0.0677,–,–,–
T114A,0.0713,0.0625,0.0615,0.0619,0.124,0.0787,–,0.0604,0.0908,0.0725,0.0701,0.0784,–,–,–,0.0525,0.0829,0.0511,0.0711
R106T,0.0777,0.0629,0.0784,0.0827,0.0947,0.0418,–,0.094,0.0536,0.0748,0.0601,0.0779,0.0899,0.106,0.0779,–,0.0811,0.0705,0.0679
S123G,0.0892,0.0565,0.0722,0.0621,0.105,0.0697,–,0.0841,0.0868,0.0867,0.0715,0.0674,0.0927,0.131,0.0698,0.0621,–,0.0654,0.0699
W141R,–,–,0.0507,0.0566,0.0453,0.0658,–,0.0509,0.059,–,–,0.0537,0.0321,0.0622,0.0577,–,0.0508,0.039,0.0727
S201A,–,0.0665,0.0582,–,0.102,–,–,0.0727,–,0.0614,0.0606,0.0648,–,0.0986,0.0788,–,0.0817,0.0642,–
N52D,–,0.0643,0.0604,0.0636,–,0.0568,–,0.0621,–,0.0617,–,0.0474,–,0.0955,0.062,–,0.0674,0.0618,–
S121P,–,–,0.0611,0.0716,0.141,–,–,0.0959,0.0796,0.0612,0.0715,0.0891,–,–,0.117,0.0631,0.117,–,0.0769
G39C,–,0.0513,0.0469,0.057,0.0434,0.0428,0.0676,0.0758,0.0509,0.0367,0.0329,0.0457,0.0393,0.08,0.0534,–,0.0477,0.0469,–
D79H,–,–,0.0613,0.0568,0.107,0.0548,–,0.0688,0.0596,–,0.0593,0.0314,–,0.133,0.107,0.0602,0.0818,0.0655,–
M219G,–,0.0609,0.0674,0.0674,0.067,0.0529,0.0687,0.0741,0.0614,0.0624,0.0633,0.0656,0.0621,0.0646,0.0823,0.0604,0.0841,–,0.0745
D69N,–,0.0205,–,0.067,–,0.0593,0.0829,0.099,0.0659,–,0.0723,0.0872,0.0654,–,–,–,0.0838,0.0595,0.06
